One experiment has as its system SNU-16 + NALM-6 Cells. As to the kind of experiment: In vitro bystander assay, SNU-16 + NALM-6 coculture (1:1). It is filed as cell-based. To be noted: SNU-16 + NALM-6 1:1 coculture; 5 days. As to the method:
(§1) Five-fold serial dilutions of anti-FGFR2 ADCs or isotype control ADCs were prepared in dilution media (Optimem+0.1% BSA) and added to cells at final concentrations ranging from 20 nM to 0.051 pM (concentrations were corrected for the DAR and are dosed based on the effective payload concentration). Five-fold serial dilutions of free payloads were prepared in 100% DMSO, transferred to fresh dilution media, and then added to the cells at a final constant DMSO concentration of 0.2% and final payload concentrations ranging from 20 nM to 0.051 pM. […] Relative light units (RLUs) were measured on an Envision luminometer (Perkin Elmer) and cell viability was expressed as a percentage of the untreated (100% viable) cells. IC50 values were determined using a four-parameter logistic equation over a 10-point dose response curve (GraphPad Prism). The maximum % kill was also determined for each test article as follows: 100−minimum percent viability.
(§2) The ability of the anti-FGFR2 ADCs to induce cytotoxicity in FGFR2 negative cells through release of the payload in FGFR2 positive cells, i.e., bystander activity, was also assessed. […] Cytotoxicity was assessed as described previously for tumor cell lines except that three-fold serial dilutions were performed for all test articles with concentrations ranging from 100 nM to 15.2 pM, and cells were incubated with test articles for 5 days.

In experiment [1] the test system is SNU-16 human gastric cancer xenografts. As to the kind of experiment: SNU-16 gastric cancer xenograft growth (Example 7). To be noted: Experiment B, subcutaneous; for Average % Decrease in Tumor Growth: vs isotype control group; for Average % Tumor Regression: vs tumor volume at start. It is filed as in vivo, BALB/c SCID mice. As to the method: Briefly, 5×10^6 SNU-16 cells (ATCC) mixed with Matrigel (BD Biosciences) were implanted subcutaneously into the flank of male BALB/c SCID mice (6-8 weeks old, Jackson Laboratory). After tumors reached an average volume of 200-250 mm^3, mice were randomized into groups for treatment (n=5-6 mice per group for Experiment A and n=6-7 mice per group for Experiment B). […] Tumor volumes were measured twice per week over the course of the experiment. Averages (mean+/−standard deviation) of the tumor growth (change in tumor volume from the start of treatment through the end of the experiment) were calculated for each treatment group. The percent decrease of tumor growth was calculated from comparison to the isotype control group, and the percent regression of tumors at the end of the experiment was calculated from comparison to the tumor volume at the start of treatment.

A further experiment has as its target T1, hFGFR2b.mmh (Homo sapiens, UniProt P21802).
T1 construct: myc-myc-hexahistidine (MMH) (C); made in house
As to the kind of experiment: Biacore surface plasmon resonance binding kinetics to hFGFR2b.mmh. To be noted: 25° C. As to the method:
The Biacore sensor surface was derivatized by amine coupling with a monoclonal mouse anti-human Fc antibody (REGN2567 or Jackson Cat. […] Human FGFR2b and Human FGFR2c were prepared in-house expressing a C-terminal myc-myc-hexahistidine tag ([…] NO: 57; […] NO: 58). […] Association of hFGFR2b-MMH or hFGFR2c-MMH to each of the captured ADCs and monoclonal antibodies was monitored for 4 minutes. Subsequently, dissociation was monitored for 10 minutes in HBS-EP running buffer. Anti-human Fc surface was regenerated by a brief injection of 20 mM H3PO4. All binding kinetic experiments were performed at 25° C. […] All sensorgrams were double referenced by subtracting buffer injection sensorgram signal from the corresponding analyte sensorgram, thereby removing artifacts caused by dissociation of the antibody from the capture surface. […] [formula]

The subject of another experiment is IM-9 cells. As to the kind of experiment: In vitro cytotoxicity assay (CellTiter-Glo 2.0), IM-9 cells. The format is cell-based, human. To be noted: 6 days; for IC50: IM-9 (non-FGFR2 expressing); for Max % Kill: IM-9, up to 20 nM. As to the method: (§3) To test the ability of anti-FGFR2 antibody drug conjugates (ADCs) disclosed herein to kill human cell lines, an in vitro cytotoxicity assay was performed. In vitro cytotoxicity of the anti-FGFR2 ADCs, isotype control ADCs, and reference free payloads were evaluated using the CellTiter-Glo 2.0 Assay Kit (Promega, Cat #G9243), in which the quantity of ATP present is used to determine the number of viable cells in culture. The payloads Maytansinoid 1A, Maytansinoid 1A* (a cell permeable equivalent of Maytansinoid 1A), and Tubulysin 1A were tested as free payloads, and the unconjugated antibodies, including comparator antibodies, were used as controls.
(§4) Five-fold serial dilutions of anti-FGFR2 ADCs or isotype control ADCs were prepared in dilution media (Optimem+0.1% BSA) and added to cells at final concentrations ranging from 20 nM to 0.051 pM (concentrations were corrected for the DAR and are dosed based on the effective payload concentration). Five-fold serial dilutions of free payloads were prepared in 100% DMSO, transferred to fresh dilution media, and then added to the cells at a final constant DMSO concentration of 0.2% and final payload concentrations ranging from 20 nM to 0.051 pM. The last well in each dilution series served as an untreated control and included media alone or media plus 0.2% DMSO and was plotted as a continuation of the 5-fold serial dilution. Six days later, 100 uL of CellTiter Glo 2.0 was added to each well, plates were mixed for 2 minutes on an orbital shaker, and plates were incubated at room temperature for 10 minutes. Relative light units (RLUs) were measured on an Envision luminometer (Perkin Elmer) and cell viability was expressed as a percentage of the untreated (100% viable) cells. IC50 values were determined using a four-parameter logistic equation over a 10-point dose response curve (GraphPad Prism). The maximum % kill was also determined for each test article as follows: 100−minimum percent viability.
On the technique in general: ATP-based viability assays read luminescence as a measure of living cells.

The subject of the next experiment is NALM-6 cells. As to the kind of experiment: In vitro bystander assay, NALM-6 monoculture. To be noted: 5 days. The format is cell-based. How it is done: as §1, §2
A further experiment relates to NCI-H716 cells. As to the kind of experiment: In vitro cytotoxicity assay (CellTiter-Glo 2.0), NCI-H716 cells. The format is cell-based, human. To be noted: 6 days; for IC50: NCI-H716 (low FGFR2b, high FGFR2c); for Max % Kill: NCI-H716, up to 20 nM. How it is done: as §3, §4
A further experiment addresses T2, hFGFR2c.mmh (Homo sapiens, UniProt P21802).
T2 construct: myc-myc-hexahistidine (MMH) (C); made in house
As to the kind of experiment: Biacore surface plasmon resonance binding kinetics to hFGFR2c.mmh. To be noted: 25° C. How it is done:
The equilibrium dissociation constants (KD values) for hFGFR2b.mmh binding to anti-FGFR2 antibodies conjugated with Tubulysin (“tubulysin 1ALP”), Auristatin (“auristatin LP1”), or mc-VC-PAB-NMe-C3-May (“maytansinoid 1ALP”) were determined using a real-time surface plasmon resonance biosensor assay on a Biacore 2000 or a Biacore 4000 instrument. The Biacore sensor surface was derivatized by amine coupling with a monoclonal mouse anti-human Fc antibody (REGN2567 or Jackson Cat. No #109-005-098) to capture anti-FGFR2 ADC and parent unmodified antibodies expressed with human constant regions. Biacore binding studies were performed in HBS-EP running buffer (0.01M HEPES pH 7.4, 0.15M NaCl, 3 mM EDTA, 0.05% v/v Surfactant P20). […] Association of hFGFR2b-MMH or hFGFR2c-MMH to each of the captured ADCs and monoclonal antibodies was monitored for 4 minutes. Subsequently, dissociation was monitored for 10 minutes in HBS-EP running buffer. […] Kinetic association (ka) and dissociation (kd) rate constants were determined by fitting the real-time sensorgrams to a 1:1 binding model using Scrubber 2.0c curve fitting software. […] Binding dissociation equilibrium constants (KD) and dissociative half-lives (t½) were calculated from the kinetic rate constants as: […]
On the technique in general: In SPR one partner is held on a chip, and binding of the other changes the refractive index at the surface.

Another experiment relates to SNU-16 cells. As to the kind of experiment: In vitro cytotoxicity assay (CellTiter-Glo 2.0), SNU-16 cells. The format is cell-based, human. The settings on record: 6 days. How it is done: as §3
as §1, with “concentration).” for “concentration). Five-fold serial dilutions of free payloads were prepared in 100% DMSO, transferred to fresh dilution media, and then added to the cells at a final constant DMSO concentration of 0.2% and final payload concentrations ranging from 20 nM to 0.051 pM.”

The next experiment relates to MFM-223 cells. As to the kind of experiment: In vitro cytotoxicity assay (CellTiter-Glo 2.0), MFM-223 cells. It is filed as cell-based, human. The settings on record: 6 days. How it is done:
as §3
as §1, with “concentration).” for “concentration). Five-fold serial dilutions of free payloads were prepared in 100% DMSO, transferred to fresh dilution media, and then added to the cells at a final constant DMSO concentration of 0.2% and final payload concentrations ranging from 20 nM to 0.051 pM.”

Some results are limits rather than exact numbers.

A word on the IC50: it is the concentration at which inhibition is half-maximal. As usually defined, the Kd is the concentration at which binding is half-saturated. Read a low Kd as a tighter complex.

T1 sequence (P21802 with tags, fused parts or gaps isoform P21802-3): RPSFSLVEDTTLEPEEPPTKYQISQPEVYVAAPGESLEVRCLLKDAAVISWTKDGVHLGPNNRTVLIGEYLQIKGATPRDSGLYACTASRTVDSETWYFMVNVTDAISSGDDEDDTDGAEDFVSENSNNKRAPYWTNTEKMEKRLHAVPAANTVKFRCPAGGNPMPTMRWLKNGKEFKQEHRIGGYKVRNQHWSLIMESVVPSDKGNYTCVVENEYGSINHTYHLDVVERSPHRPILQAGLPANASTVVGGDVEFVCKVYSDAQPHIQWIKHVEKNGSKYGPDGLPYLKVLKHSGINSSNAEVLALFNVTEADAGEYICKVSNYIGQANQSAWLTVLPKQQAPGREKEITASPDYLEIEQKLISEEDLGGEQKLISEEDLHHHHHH
T2 sequence (P21802 with tags, fused parts or gaps): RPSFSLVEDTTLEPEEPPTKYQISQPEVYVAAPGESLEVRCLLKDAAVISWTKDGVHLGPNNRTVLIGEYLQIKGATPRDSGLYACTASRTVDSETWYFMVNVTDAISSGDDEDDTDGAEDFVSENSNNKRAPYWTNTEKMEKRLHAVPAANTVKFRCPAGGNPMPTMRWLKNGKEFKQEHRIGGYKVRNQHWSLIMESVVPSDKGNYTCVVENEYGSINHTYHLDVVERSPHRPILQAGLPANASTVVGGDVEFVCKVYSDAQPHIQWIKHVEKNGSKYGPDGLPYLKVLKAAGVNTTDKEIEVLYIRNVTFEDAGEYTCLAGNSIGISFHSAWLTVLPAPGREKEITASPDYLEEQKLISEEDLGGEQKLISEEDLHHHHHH

B1: mAb2-maytansinoid 1ALP: anti-FGFR2 mAb2 conjugated to maytansinoid 1ALP (mc-VC-PAB-NMe-C3-May) (conjugate)
heavy: QVQLVESGGGVVQPGKSLRLSCAASGFTFSNYGMHWVRQTPVKGLEWVTLIWYDGSNKYYTDSVKGRFTISRDNSKNTLYLQMNSLRSEDTAVYYCAREGNWNYGHAFDIWGQGTMVTVSSASTKGPSVFPLAPCSRSTSESTAALGCLVKDYFPEPVTVSWNSGALTSGVHTFPAVLQSSGLYSLSSVVTVPSSSLGTKTYTCNVDHKPSNTKVDKRV[human IgG4 Fc with S228P (EU numbers) omitted]
light: DIQMTQSPSTLSASVGDRVTITCRASQNIGNWLAWYQQKPGKAPNLLIYKASTLESGVPSRFSGSGSGTEFTLTISSLQPDDFATYNCQQYNSYSPTFGQGTKLEIKRTVAAPSVFIFPPSDEQLKSGTASVVCLLNNFYPREAKVQWKVDNALQSGNSQESVTEQDSKDSTYSLSSTLTLSKADYEKHKVYACEVTHQGLSSPVTKSFNRGEC
modifications: N-methyl
Consider B1, for which the IC50 is above 100 nM with SNU-16 + NALM-6 Cells, above 20 nM in the experiment with IM-9 cells, above 100 nM in the experiment on NALM-6 cells (100 nM to 15.2 pM) and above 20 nM with NCI-H716 cells. Further, the “Tumor growth in mm3 from start of treatment (mean ± SD)” value in [1] (1.0 mg/kg once) is on record as 547.6 ± 292.3 mm3; in experiment [1] (3.0 mg/kg once), 164.1 ± 245.5 mm3; in [1] (10 mg/kg once) it was −35.1 ± 102.7 mm3; in [1] (15 mg/kg once), −5.8 ± 145.6 mm3. Besides, the “Average % Decrease in Tumor Growth” value in experiment [1] (1.0 mg/kg once) is listed as 63.9%; in experiment [1] (3.0 mg/kg once) it was 89.2%. Further, the results for the “Average % Tumor Regression” value in experiment [1] (10 mg/kg once) and in [1] (15 mg/kg once) were 18.2% and 8.4%, respectively. Also, in the experiment with hFGFR2b.mmh, the “ka” value is 68500 M⁻¹ s⁻¹. The “kd” value in the experiment with hFGFR2b.mmh was 0.000879 s⁻¹. Also, the figures for the “Max % Kill” value with IM-9 cells, in the experiment on NALM-6 cells and with NCI-H716 cells were 9.5%, 5.0% and 17.0%, respectively.

B2: mAb2: anti-FGFR2 antibody; HCVR/LCVR SEQ ID NO: 22/28, HC/LC 36/38; N297Q heavy chain SEQ ID NO: 53 (antibody)
heavy: QVQLVESGGGVVQPGKSLRLSCAASGFTFSNYGMHWVRQTPVKGLEWVTLIWYDGSNKYYTDSVKGRFTISRDNSKNTLYLQMNSLRSEDTAVYYCAREGNWNYGHAFDIWGQGTMVTVSSASTKGPSVFPLAPCSRSTSESTAALGCLVKDYFPEPVTVSWNSGALTSGVHTFPAVLQSSGLYSLSSVVTVPSSSLGTKTYTCNVDHKPSNTKVDKRV[human IgG4 Fc with S228P (EU numbers) omitted]
light: DIQMTQSPSTLSASVGDRVTITCRASQNIGNWLAWYQQKPGKAPNLLIYKASTLESGVPSRFSGSGSGTEFTLTISSLQPDDFATYNCQQYNSYSPTFGQGTKLEIKRTVAAPSVFIFPPSDEQLKSGTASVVCLLNNFYPREAKVQWKVDNALQSGNSQESVTEQDSKDSTYSLSSTLTLSKADYEKHKVYACEVTHQGLSSPVTKSFNRGEC
Regarding B2, the “ka” value with hFGFR2b.mmh was 50100 M⁻¹ s⁻¹. The “kd” value with hFGFR2b.mmh amounted to 0.000447 s⁻¹. Further, the “Antigen Bound (RU)” value in the experiment with hFGFR2b.mmh (antibody or ADC captured on anti-human Fc surface) was 62.5 RU; in the experiment with hFGFR2c.mmh (antibody captured on anti-human Fc surface), −1.4 RU. For the same molecule, the 50% inhibitory concentration (IC50) in the experiment on IM-9 cells, in the experiment with SNU-16 cells (SNU-16 (FGFR2b positive)), with MFM-223 cells (MFM-223 (FGFR2b positive)) and in the experiment with NCI-H716 cells was above 20 nM in each case. The “Max % Kill” value with IM-9 cells turned out to be 6.4%; with SNU-16 cells (SNU-16, up to 20 nM), 10.3%; with MFM-223 cells (MFM-223, up to 20 nM), 4.5%; in the experiment with NCI-H716 cells, 7.8%. In the experiment with hFGFR2c.mmh, this molecule registered a Kd above 30 nM.

The record behind these values is patent US11866502B2, “Anti-FGFR2 antibodies and methods of use thereof” (Regeneron Pharmaceuticals, Inc., priority 2020, dated 2024).
